Laboratory results: PubChem BioAssay AID603 (National Center for Advancing Translational Sciences (NCATS), 2007)
Hit rate of the full screen: of about 71,000 compounds, about 180 (0.25%) were called active. The shares of active, inactive and inconclusive entries below differ from those in the screen. Calls come from the whole dose curve; as a rule, active = well fitted curve in the direction sought with a large enough effect; inconclusive = small, poorly fitted or top-dose-only effect; inactive = flat fitted curve, though single readings scatter. Where the call is inconclusive, the potency comes from a doubtful curve fit.

System: DNA polymerase III holoenzyme (E. coli)
Assay: qHTS Assay for Inhibitors of DNA Polymerase III Holoenzyme System
Conditions: reconstituted DNA polymerase III holoenzyme replication, biochemical; series mostly up to 57.1 µM; activity change, negative = inhibition: at the top concentration
Procedure, shortened: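 Reconstituted *E. coli* holoenzyme (0.35 nM Pol III, 1 nM beta, 154 nM SSB, 2 nM primase) was preincubated with compound for 15 min at RT. Synthesis on 1.4 nM ssM13Gori ran 35 min, then was stopped with PicoGreen/EDTA and read as dsDNA fluorescence.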
% is set by controls: 0 for no effect and ±100 for the full control effect; potency is the fitted concentration of half-maximal effect.

SMILES	Potency	activity change, negative = inhibition
CC(NC(=O)c1ccco1)C(=O)OCc1cccc(Cl)c1 (stereo not drawn)	inconclusive: 6.31 µM	–
CCOC(=O)CNC(=O)CSc1nc2cccnc2n1Cc1ccccc1	inconclusive: 6.31 µM	–
Cc1ccc(CN2CC(C(=O)Nc3ccc4c(C)cc(=O)oc4c3)CC2=O)cc1 (stereo not drawn)	inconclusive: 6.31 µM	–
COC(=O)c1cccc(-n2nnnc2SCC(=O)Nc2nc3c(s2)CCCC3)c1	inconclusive: 5.01 µM	–
COc1ccc(CC(NC(C)=O)C(=O)NC2CCN(c3nc(C)cc(C)c3C#N)CC2)c(OC)c1 (stereo not drawn)	inconclusive: 6.31 µM	–
CCOC(=O)C1CCN(C(=O)Nc2ccc3nc(-c4ccco4)c(-c4ccco4)nc3c2)CC1	active: 12.6 µM	–
CCN(CC)C(=O)C(C)N(C#N)c1nc(NC(C)C)nc(NC(C)C)n1 (stereo not drawn)	–	inactive: 1.8%
C/C(N)=C(/C#N)C(=O)CSc1nnc(SCc2ccc(Cl)cc2)s1	inconclusive: 6.31 µM	–
CN(C)[C@H]1C(=O)C(C(=O)NCN2CCCC2)=C(O)[C@]2(O)C(=O)C3=C(O)c4c(O)cccc4[C@](C)(O)[C@H]3C[C@H]12	active: 3.16 µM	–
O=C(O)c1cccn2c(=O)c3ccccc3nc12	inconclusive: 6.31 µM	–
O=C(O)CCCNc1cc(N2CCC3(CC2)OCCO3)c2noc3c2c1C(=O)c1ccccc1-3	active: 3.16 µM	–
N#CC(c1nc2ccccc2nc1N1CCCC1)S(=O)(=O)c1cccs1 (stereo not drawn)	–	inactive: -17.8%
C[N+](C)(CCCCCC[N+](C)(C)CCCN1C(=O)c2cccc3cccc(c23)C1=O)CCCN1C(=O)c2cccc3cccc(c23)C1=O	active: 15.8 µM	–
COc1ccc(CCNC(=O)Cc2nn(C)c(=O)c3ccccc23)cc1OC	inconclusive: 3.98 µM	–
O=S(=O)(Nc1cccc(-c2cn3ccsc3n2)c1)c1ccc(F)cc1	inconclusive: 6.31 µM	–
CC(=O)c1cccc(NC(=O)C2CCN(S(=O)(=O)c3ccc(C)cc3)CC2)c1	–	inactive: -5.4%
c1coc(-c2nn3c(-c4ccco4)nnc3s2)c1	inconclusive: 39.8 µM	–
CCn1ncc2c1C(=O)NC1c3ccccc3C(=O)N21 (stereo not drawn)	inconclusive: 39.8 µM	–
Cc1occc1-c1nnc(SCC(=O)c2cc3ccccc3oc2=O)o1	inconclusive: 20 µM	–
O=C(Nc1nc2ccccc2s1)C1CCCO1 (stereo not drawn)	inconclusive: 6.31 µM	–
CCCC[C@@H]1C[C@H]1C(NC(=O)c1ccccc1)c1ccc(C(F)(F)F)cc1 (stereo partly drawn)	–	inactive: -4.4%
Cc1cccc(Nc2nc(N)nc(CN3CCN(c4ccc(F)cc4)CC3)n2)c1	–	inactive: 4.5%
CC(=O)n1nc(-c2ccco2)nc1SCc1ccccc1	inconclusive: 31.6 µM	–
CCN(CC)CC[n+]1ccc2c(C)c3[nH]c4ccccc4c3c(C)c2c1	active: 3.98 µM	–
O=C(c1ccc(OCC2CCCO2)cc1)N1CCN(c2ccccc2)CC1 (stereo not drawn)	inconclusive: 6.31 µM	–
O=C(Nc1nc2n(n1)C(c1ccccc1)C=C(c1ccccc1)N2)c1ccco1 (stereo not drawn)	inconclusive: 39.8 µM	–
c1coc(-c2nc(-c3ccco3)c(-c3ccco3)nc2-c2ccco2)c1	active: 1.58 µM	–

SMILES	Potency	activity change, negative = inhibition
O=C(CSc1nc2ccccc2c(=O)[nH]1)c1ccc(O)c(O)c1	inconclusive: 31.6 µM	–
O=[N+]([O-])c1cc([N+](=O)[O-])c2ccc(S(=O)(=O)O)cc2c1O	inconclusive: 39.8 µM	–
Cc1c2cc[n+](CCN3CCCCC3)cc2c(C)c2c1[nH]c1ccc(O)cc12	active: 2.51 µM	–
CCCn1c(N)c(C(=O)CSc2nnc(Cc3ccccc3)o2)c(=O)n(C)c1=O	inconclusive: 6.31 µM	–
CCNC(=O)NC(=O)COC(=O)CNC(=O)COc1ccccc1	inconclusive: 6.31 µM	–
O=C(Cc1ccccc1)Nc1ccc2oc(-c3ccncc3)nc2c1	inconclusive: 31.6 µM	–
CCCn1c(-c2cccs2)nc2ccccc21	–	inactive: 0.9%
O=C(C1CCN(Cc2cc(Cl)ccc2O)CC1)N1CCN(Cc2ccccc2)CC1	inconclusive: 6.31 µM	–
CNc1ccccc1	–	inactive: 0.1%
Cc1cc(C(=O)O)ccc1-n1c(C)ccc1C	inconclusive: 31.6 µM	–
COc1ccc(Oc2ncc3nc(-c4cc(F)cc(F)c4)c(=O)n(C[C@H]4CCCO4)c3n2)cc1	–	inactive: -1%
CCn1c(SCC(=O)c2ccc(O)c(O)c2)nnc1-c1ccccc1OC	inconclusive: 12.6 µM	–
O=C(CSc1nnc(Cc2ccccc2)o1)NCCN1C(=O)CSC1=O	inconclusive: 6.31 µM	–
O=C(NCC1CCCO1)c1cc(-c2ccco2)nc2ccccc12 (stereo not drawn)	active: 31.6 µM	–
O=C(O)c1cccc(-n2cccc2/C=N/O)c1	active: 15.8 µM	–
CS(=O)(=O)N(Cc1nnc(-c2cccs2)o1)c1ccc(Cl)cc1F	inconclusive: 6.31 µM	–
N#Cc1c(NC(=O)CN2CCN(S(=O)(=O)c3ccc4c(c3)OCCO4)CC2)sc2c1CCC2	inconclusive: 6.31 µM	–
O=c1cc(-c2ccccc2O)oc2c(O)c(O)ccc12	active: 0.501 µM	–
O=C(CCCC(=O)N(CC(=O)NC1CCCC1)Cc1ccc2c(c1)OCO2)Nc1ccccn1	inconclusive: 6.31 µM	–
O=C(c1ccco1)N1C(=O)c2cccc3c(S(=O)(=O)N4CCCC4)ccc1c23	inconclusive: 39.8 µM	–
O=C(O)C1Nc2c(O)cccc2C2C=CCC12 (stereo not drawn)	active: 3.16 µM	–
Cc1cc(C)n(-c2nc3ccccc3nc2Nc2ccc3c(c2)OCO3)n1	–	inactive: 6.7%
O=C(Nc1cccnc1)c1cnn2cccnc12	–	inactive: -0.6%
COc1ccc2c3c(cccc13)NN=C2C	active: 31.6 µM	–
Cc1sc2ncn(-n3c(C)ccc3C)c(=O)c2c1C	inconclusive: 6.31 µM	–
N#Cc1c(-c2ccco2)cc(C2CC2)nc1SCC(=O)c1ccccc1	–	inactive: -2.1%
